From patent US20250041437A1, “HUMANIZED MUC1 ANTIBODY AND ANTIBODY DRUG CONJUGATE” (Sun Pharma Advanced Research Company Limited, priority 2023, published 2025)

Experiments:
[1] = molecular target: T1, recombinant human MUC1-SEA (Homo sapiens, UniProt P15941); experiment: Binding strength by Surface Plasmon Resonance (SPR)
T1 construct: on recombinant human MUC1-SEA on SPR; purchased Acrobiosystems MU1-H52H9
T1 sequence (P15941 1039-1148 limits assumed): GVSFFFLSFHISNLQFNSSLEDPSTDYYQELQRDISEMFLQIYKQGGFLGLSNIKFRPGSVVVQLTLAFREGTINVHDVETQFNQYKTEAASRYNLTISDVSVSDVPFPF
Protocol: Binding strength assessment using Surface Plasmon Resonance (SPR): MUC1 antigen (Acrobiosystems, Cat: MU1-H52H9) was captured on the anti-His immobilized on CM5 chip at 5 μl/min flow rate for 60 s. Post this concentration range of 0-50 nM of antibody or ADC is passed over MUC1 antigen at a flow rate of 30 μl/min flow rate for 120 s, keeping dissociation time of 1800 s at 25°. The dose response generated is evaluated on BIAevaluation software for the calculation of affinity of antibody to antigen as measured by dissociation constant (KD).

[2] = Single dose pharmacokinetics, COLO357 tumor bearing mouse, IV and IP 10 mg/kg; assay type: in vivo

B1: HM5LM4-ADC: humanized IgG anti-MUC1-SEA mAb HM5-LM4 conjugated to MC-Val-Cit-PABC-MMAE (conjugate)
heavy: EIQLVQSGAEVKKPGSSVKVSCKVTGHSITRGSSWHWMRQAPGQGLEWIGYIHYGGGTSYNPSLKSRITITRDTSTNTFYMELSSLRSEDTAFYFCARYSYDITYRWFFDVWGQGTLVTVSSASTKGPSVFPLAPSSKSTSGGTAALGCLVKDYFPEPVTVSWNSGALTSGVHTFPAVLQSSGLYSLSSVVTVPSSSLGTQTYICNVNHKPSNTKVDKRV[gap - human IgG1 Fc]
light: DIQMTQSPSTLSASVGDRVTITCRASQNIGTSIHWYQQKPGKAPKLLIKYASESISGVPSRFSGSGSGTEFTLTISSLQPDDFATYYCQQNNNWPLTFGQGTKVEIKRTVAAPSVFIFPPSDEQLKSGTASVVCLLNNFYPREAKVQWKVDNALQSGNSQESVTEQDSKDSTYSLSSTLTLSKADYEKHKVYACEVTHQGLSSPVTKSFNRGEC
modifications: non-natural residues
notes: humanized IgG anti-MUC1-SEA mAb HM5-LM4 conjugated to MC-Val-Cit-PABC-MMAE
Kd ([1]; ADC and unconjugated antibody comparable, read-out: dissociation constant): ~0.04 nM | kd ([1]; Table 5, single cycle kinetic): 0.000248 s⁻¹ | ka ([1]; Table 5, single cycle kinetic, antibody vs ADC): 6.12e+06 M⁻¹ s⁻¹ | Kd ([1]; Table 5, single cycle kinetic, read-out: KD): 0.0406 nM | CAB and TAB exposure, intraperitoneal higher than intravenous ([2]; 10 mg/kg, IP vs IV): ~2 fold | % F ([2]; CAB, IP 10 mg/kg, plasma): 183% | AUCINF ([2]; CAB, IP 10 mg/kg, plasma): 42.58 µM·h | AUClast ([2]; CAB, IP 10 mg/kg, plasma): 39.971 µM·h | Cmax ([2]; CAB, IP 10 mg/kg, plasma): 491 nM | T1/2 ([2]; CAB, IP 10 mg/kg, plasma): 84 h | Tmax ([2]; CAB, IP 10 mg/kg, plasma): 8 h | AUCINF ([2]; CAB, IP 10 mg/kg, tumor): 4.24 µM·h | AUClast ([2]; CAB, IP 10 mg/kg, tumor): 2.437 µM·h | Cmax ([2]; CAB, IP 10 mg/kg, tumor): 13 nM | T1/2 ([2]; CAB, IP 10 mg/kg, tumor): 266 h | AUCINF ([2]; CAB, IV 10 mg/kg, plasma): 23.268 µM·h | AUClast ([2]; CAB, IV 10 mg/kg, plasma): 22.9 µM·h | C0 ([2]; CAB, IV 10 mg/kg, plasma): 664 nM | T1/2 ([2]; CAB, IV 10 mg/kg, plasma): 57 h | AUCINF ([2]; CAB, IV 10 mg/kg, tumor): 3.721 µM·h | AUClast ([2]; CAB, IV 10 mg/kg, tumor): 3.156 µM·h | Cmax ([2]; CAB, IV 10 mg/kg, tumor): 15 nM | T1/2 ([2]; CAB, IV 10 mg/kg, tumor): 112 h | % F ([2]; TAB, IP 10 mg/kg, plasma): 224% | AUCINF ([2]; TAB, IP 10 mg/kg, plasma): 84.403 µM·h | AUClast ([2]; TAB, IP 10 mg/kg, plasma): 67.409 µM·h | Cmax ([2]; TAB, IP 10 mg/kg, plasma): 761 nM | T1/2 ([2]; TAB, IP 10 mg/kg, plasma): 155 h | Tmax ([2]; TAB, IP 10 mg/kg, plasma): 8 h | AUClast ([2]; TAB, IP 10 mg/kg, tumor): 5.353 µM·h | Cmax ([2]; TAB, IP 10 mg/kg, tumor): 25 nM | AUCINF ([2]; TAB, IV 10 mg/kg, plasma): 37.755 µM·h | AUClast ([2]; TAB, IV 10 mg/kg, plasma): 31.235 µM·h | C0 ([2]; TAB, IV 10 mg/kg, plasma): 813 nM | T1/2 ([2]; TAB, IV 10 mg/kg, plasma): 135 h | AUClast ([2]; TAB, IV 10 mg/kg, tumor): 4.847 µM·h | Cmax ([2]; TAB, IV 10 mg/kg, tumor): 20 nM | % F ([2]; uMMAE, IP 10 mg/kg, plasma): 98% | AUCINF ([2]; uMMAE, IP 10 mg/kg, plasma): 0.132 µM·h | AUClast ([2]; uMMAE, IP 10 mg/kg, plasma): 0.115 µM·h | Cmax ([2]; uMMAE, IP 10 mg/kg, plasma): 3.3 nM | T1/2 ([2]; uMMAE, IP 10 mg/kg, plasma): 34 h | Tmax ([2]; uMMAE, IP 10 mg/kg, plasma): 4 h | AUCINF ([2]; uMMAE, IP 10 mg/kg, tumor): 44.127 µM·h | AUClast ([2]; uMMAE, IP 10 mg/kg, tumor): 42.947 µM·h | Cmax ([2]; uMMAE, IP 10 mg/kg, tumor): 299 nM | T1/2 ([2]; uMMAE, IP 10 mg/kg, tumor): 59 h | AUCINF ([2]; uMMAE, IV 10 mg/kg, plasma): 0.134 µM·h | AUClast ([2]; uMMAE, IV 10 mg/kg, plasma): 0.122 µM·h | C0 ([2]; uMMAE, IV 10 mg/kg, plasma): 19 nM | T1/2 ([2]; uMMAE, IV 10 mg/kg, plasma): 51 h | AUCINF ([2]; uMMAE, IV 10 mg/kg, tumor): 50.009 µM·h | AUClast ([2]; uMMAE, IV 10 mg/kg, tumor): 48.87 µM·h | Cmax ([2]; uMMAE, IV 10 mg/kg, tumor): 334 nM | T1/2 ([2]; uMMAE, IV 10 mg/kg, tumor): 63 h

Where two headings read alike, the source gives them in different places.
